# Test results from the supplement of paper PMC8728848.
# The other results are listed elsewhere or left out.
# How the values were obtained:
# Experiment in all cases: glycan array binding signal (z-score within array); higher = stronger binding
# Conditions in all cases: glycan notation: IUPAC condensed, linker removed; mutation: D22R
# [1] = target: GlcNAc(b1-3)Gal(b1-3)GalNAc
# Outline: (§1)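 From the Consortium for Functional Glycomics database, 3228 arrays were curated, keeping only those whose protein sequence was available. Binding is given as a within-array Z-score averaged across arrays sharing a protein sequence and across linkers. Negative Z-scores can be read as non-binding.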
# GlcNAc(b1-3)Gal(b1-4)Glc = target: GlcNAc(b1-3)Gal(b1-4)Glc
# Outline: as §1
# [2] = target: GlcNAc(b1-3)Gal(b1-4)GlcNAc
# Outline: as §1
# [3] = target: GlcNAc(b1-3)Gal(b1-4)GlcNAc(b1-2)Man(a1-3)[GlcNAc(b1-3)Gal(b1-4)GlcNAc(b1-2)Man(a1-6)]Man(b1-4)GlcNAc(b1-4)GlcNAc
# Outline: as §1
# [4] = target: GlcNAc(b1-3)Gal(b1-4)GlcNAc(b1-2)Man(a1-3)[GlcNAc(b1-3)Gal(b1-4)GlcNAc(b1-2)Man(a1-6)]Man(b1-4)GlcNAc(b1-4)[Fuc(a1-6)]GlcNAc
# Outline: as §1
# [5] = target: GlcNAc(b1-3)Gal(b1-4)GlcNAc(b1-2)[GlcNAc(b1-3)Gal(b1-4)GlcNAc(b1-6)]Man(a1-6)[GlcNAc(b1-3)Gal(b1-4)GlcNAc(b1-2)Man(a1-3)]Man(b1-4)GlcNAc(b1-4)GlcNAc
# Outline: as §1
# [6] = target: GlcNAc(b1-3)Gal(b1-4)GlcNAc(b1-3)Gal(b1-4)GlcNAc
# Outline: as §1
# [7] = target: GlcNAc(b1-3)Gal(b1-4)GlcNAc(b1-3)Gal(b1-4)GlcNAc(b1-2)Man(a1-3)[GlcNAc(b1-3)Gal(b1-4)GlcNAc(b1-3)Gal(b1-4)GlcNAc(b1-2)Man(a1-6)]Man(b1-4)GlcNAc(b1-4)GlcNAc
# Outline: as §1
# [8] = target: GlcNAc(b1-3)Gal(b1-4)GlcNAc(b1-3)Gal(b1-4)GlcNAc(b1-2)Man(a1-3)[GlcNAc(b1-3)Gal(b1-4)GlcNAc(b1-3)Gal(b1-4)GlcNAc(b1-2)Man(a1-6)]Man(b1-4)GlcNAc(b1-4)[Fuc(a1-6)]GlcNAc
# Outline: as §1
# [9] = target: GlcNAc(b1-3)Gal(b1-4)GlcNAc(b1-3)Gal(b1-4)GlcNAc(b1-2)[GlcNAc(b1-3)Gal(b1-4)GlcNAc(b1-3)Gal(b1-4)GlcNAc(b1-6)]Man(a1-6)[GlcNAc(b1-3)Gal(b1-4)GlcNAc(b1-3)Gal(b1-4)GlcNAc(b1-2)Man(a1-3)]Man(b1-4)GlcNAc(b1-4)[Fuc(a1-6)]GlcNAc
# Outline: as §1
# [10] = target: GlcNAc(b1-3)Gal(b1-4)GlcNAc(b1-3)Gal(b1-4)GlcNAc(b1-3)Gal(b1-4)GlcNAc(b1-2)Man(a1-3)[GlcNAc(b1-3)Gal(b1-4)GlcNAc(b1-3)Gal(b1-4)GlcNAc(b1-3)Gal(b1-4)GlcNAc(b1-2)Man(a1-6)]Man(b1-4)GlcNAc(b1-4)GlcNAc
# Outline: as §1
# [11] = target: GlcNAc(b1-3)Gal(b1-4)GlcNAc(b1-3)Gal(b1-4)GlcNAc(b1-3)Gal(b1-4)GlcNAc(b1-2)Man(a1-3)[GlcNAc(b1-3)Gal(b1-4)GlcNAc(b1-3)Gal(b1-4)GlcNAc(b1-3)Gal(b1-4)GlcNAc(b1-2)Man(a1-6)]Man(b1-4)GlcNAc(b1-4)[Fuc(a1-6)]GlcNAc
# Outline: as §1
# [12] = target: GlcNAc(b1-3)Gal(b1-4)GlcNAc(b1-3)Gal(b1-4)GlcNAc(b1-3)Gal(b1-4)GlcNAc(b1-2)[GlcNAc(b1-3)Gal(b1-4)GlcNAc(b1-3)Gal(b1-4)GlcNAc(b1-3)Gal(b1-4)GlcNAc(b1-6)]Man(a1-6)[GlcNAc(b1-3)Gal(b1-4)GlcNAc(b1-3)Gal(b1-4)GlcNAc(b1-3)Gal(b1-4)GlcNAc(b1-2)Man(a1-3)]Man(b1-4)GlcNAc(b1-4)[Fuc(a1-6)]GlcNAc
# Outline: as §1
# [13] = target: GlcNAc(b1-3)Gal(b1-4)GlcNAc(b1-3)Gal(b1-4)GlcNAc(b1-3)Gal(b1-4)GlcNAc(b1-3)Gal(b1-4)GlcNAc(b1-2)Man(a1-3)[GlcNAc(b1-3)Gal(b1-4)GlcNAc(b1-3)Gal(b1-4)GlcNAc(b1-3)Gal(b1-4)GlcNAc(b1-3)Gal(b1-4)GlcNAc(b1-2)Man(a1-6)]Man(b1-4)GlcNAc(b1-4)GlcNAc
# Outline: as §1
# [14] = target: GlcNAc(b1-3)Gal(b1-4)GlcNAc(b1-3)Gal(b1-4)GlcNAc(b1-3)Gal(b1-4)GlcNAc(b1-3)Gal(b1-4)GlcNAc(b1-2)Man(a1-3)[GlcNAc(b1-3)Gal(b1-4)GlcNAc(b1-3)Gal(b1-4)GlcNAc(b1-3)Gal(b1-4)GlcNAc(b1-3)Gal(b1-4)GlcNAc(b1-2)Man(a1-6)]Man(b1-4)GlcNAc(b1-4)[Fuc(a1-6)]GlcNAc
# Outline: as §1
# [15] = target: GlcNAc(b1-3)Gal(b1-4)GlcNAc(b1-3)Gal(b1-4)GlcNAc(b1-3)Gal(b1-4)GlcNAc(b1-3)Gal(b1-4)GlcNAc(b1-2)[GlcNAc(b1-3)Gal(b1-4)GlcNAc(b1-3)Gal(b1-4)GlcNAc(b1-3)Gal(b1-4)GlcNAc(b1-3)Gal(b1-4)GlcNAc(b1-6)]Man(a1-6)[GlcNAc(b1-3)Gal(b1-4)GlcNAc(b1-3)Gal(b1-4)GlcNAc(b1-3)Gal(b1-4)GlcNAc(b1-3)Gal(b1-4)GlcNAc(b1-2)Man(a1-3)]Man(b1-4)GlcNAc(b1-4)[Fuc(a1-6)]GlcNAc
# Outline: as §1
# [16] = target: GlcNAc(b1-3)Gal(b1-4)GlcNAc(b1-3)Gal(b1-4)GlcNAc(b1-3)GalNAc
# Outline: as §1
# [17] = target: GlcNAc(b1-3)Gal(b1-4)GlcNAc(b1-3)GalNAc
# Outline: as §1
# [18] = target: GlcNAc(b1-3)Gal(b1-4)GlcNAc(b1-3)[GlcNAc(b1-3)Gal(b1-4)GlcNAc(b1-3)]GalNAc
# Outline: as §1
# [19] = target: GlcNAc(b1-3)Gal(b1-4)GlcNAc(b1-6)[Gal(b1-3)]GalNAc
# Outline: as §1
# [20] = target: GlcNAc(b1-3)Gal(b1-4)GlcNAc(b1-6)[GlcNAc(b1-3)Gal(b1-3)]GalNAc
# Outline: as §1
# [21] = target: GlcNAc(b1-3)Gal(b1-4)GlcNAc(b1-6)[GlcNAc(b1-3)]Gal(b1-4)GlcNAc
# Outline: as §1
# GlcNAc(b1-3)GalNAc = target: GlcNAc(b1-3)GalNAc
# Outline: as §1
# GlcNAc(b1-3)Man = target: GlcNAc(b1-3)Man
# Outline: as §1
# [22] = target: GlcNAc(b1-3)[GlcNAc(b1-4)][GlcNAc(b1-6)]GlcNAc
# Outline: as §1
# [23] = target: GlcNAc(b1-3)[GlcNAc(b1-6)]Gal(b1-4)GlcNAc
# Outline: as §1
# [24] = target: GlcNAc(b1-3)[GlcNAc(b1-6)]GalNAc
# Outline: as §1
# [25] = target: GlcNAc(b1-4)Gal(b1-4)GlcNAc
# Outline: as §1
# GlcNAc(b1-4)GlcNAc = target: GlcNAc(b1-4)GlcNAc
# Outline: as §1
# [26] = target: GlcNAc(b1-4)GlcNAc(b1-4)GlcNAc
# Outline: as §1
# [27] = target: GlcNAc(b1-4)GlcNAc(b1-4)GlcNAc(b1-4)GlcNAc(b1-4)GlcNAc
# Outline: as §1
# [28] = target: GlcNAc(b1-4)GlcNAc(b1-4)GlcNAc(b1-4)GlcNAc(b1-4)GlcNAc(b1-4)GlcNAc
# Outline: as §1
# [29] = target: GlcNAc(b1-4)[GlcNAc(b1-6)]GalNAc
# Outline: as §1
# [30] = target: GlcNAc(b1-6)Gal(b1-4)GlcNAc
# Outline: as §1
# GlcNAc(b1-6)GalNAc = target: GlcNAc(b1-6)GalNAc
# Outline: as §1
# [31] = target: GlcNAc6S(b1-3)Gal(b1-4)GlcNAc
# Outline: as §1
# Kdn(a2-3)Gal(b1-3)GalNAc = target: Kdn(a2-3)Gal(b1-3)GalNAc
# Outline: as §1
# Kdn(a2-3)Gal(b1-3)GlcNAc = target: Kdn(a2-3)Gal(b1-3)GlcNAc
# Outline: as §1
# Kdn(a2-3)Gal(b1-4)Glc = target: Kdn(a2-3)Gal(b1-4)Glc
# Outline: as §1
# Kdn(a2-3)Gal(b1-4)GlcNAc = target: Kdn(a2-3)Gal(b1-4)GlcNAc
# Outline: as §1
# [32] = target: Kdn(a2-3)Gal(b1-4)[Fuc(a1-3)]GlcNAc
# Outline: as §1
# Kdn(a2-6)Gal(b1-4)GlcNAc = target: Kdn(a2-6)Gal(b1-4)GlcNAc
# Outline: as §1
# [33] = target: Man(a1-2)Man(a1-2)Man(a1-3)Man
# Outline: as §1
# [34] = target: Man(a1-2)Man(a1-2)Man(a1-6)[Man(a1-3)]Man
# Outline: as §1
# Man(a1-2)Man(a1-3)Man = target: Man(a1-2)Man(a1-3)Man
# Outline: as §1
binder,measurement,setting,value
MpL2 (Macrolepiota procera) (protein) MSTQVSSGQTYKITNVKAGTVIRLSGEDNKSIIGYPYHSGKNQQWTFNWTGKAWTLRSASSGSYLGIEGTPADGTRLVAVNDPFEWHIWRDEANENAFRIFVPFTNYNLDLSGYGDTTPGTPVQLWWTWEGLHQTWTIDRP,glycan array binding signal (z-score),[1],-0.16
same,glycan array binding signal (z-score),GlcNAc(b1-3)Gal(b1-4)Glc,0.049
same,glycan array binding signal (z-score),[2],-0.122
same,glycan array binding signal (z-score),[3],0.092
same,glycan array binding signal (z-score),[4],0.441
same,glycan array binding signal (z-score),[5],1.11
same,glycan array binding signal (z-score),[6],-0.221
same,glycan array binding signal (z-score),[7],1.25
same,glycan array binding signal (z-score),[8],0.874
same,glycan array binding signal (z-score),[9],1.56
same,glycan array binding signal (z-score),[10],0.573
same,glycan array binding signal (z-score),[11],0.702
same,glycan array binding signal (z-score),[12],1.51
same,glycan array binding signal (z-score),[13],0.496
same,glycan array binding signal (z-score),[14],-0.377
same,glycan array binding signal (z-score),[15],0.58
same,glycan array binding signal (z-score),[16],0.292
same,glycan array binding signal (z-score),[17],-0.102
same,glycan array binding signal (z-score),[18],0.131
same,glycan array binding signal (z-score),[19],-0.42
same,glycan array binding signal (z-score),[20],-0.021
same,glycan array binding signal (z-score),[21],-0.264
same,glycan array binding signal (z-score),GlcNAc(b1-3)GalNAc,-0.361
same,glycan array binding signal (z-score),GlcNAc(b1-3)Man,-0.162
same,glycan array binding signal (z-score),[22],-0.607
same,glycan array binding signal (z-score),[23],-0.071
same,glycan array binding signal (z-score),[24],-0.416
same,glycan array binding signal (z-score),[25],0.058
same,glycan array binding signal (z-score),GlcNAc(b1-4)GlcNAc,-0.167
same,glycan array binding signal (z-score),[26],-0.47
same,glycan array binding signal (z-score),[27],0.055
same,glycan array binding signal (z-score),[28],-0.21
same,glycan array binding signal (z-score),[29],-0.082
same,glycan array binding signal (z-score),[30],-0.168
same,glycan array binding signal (z-score),GlcNAc(b1-6)GalNAc,-0.334
same,glycan array binding signal (z-score),[31],-0.068
same,glycan array binding signal (z-score),Kdn(a2-3)Gal(b1-3)GalNAc,-0.183
same,glycan array binding signal (z-score),Kdn(a2-3)Gal(b1-3)GlcNAc,0.14
same,glycan array binding signal (z-score),Kdn(a2-3)Gal(b1-4)Glc,-0.944
same,glycan array binding signal (z-score),Kdn(a2-3)Gal(b1-4)GlcNAc,0.124
same,glycan array binding signal (z-score),[32],-0.398
same,glycan array binding signal (z-score),Kdn(a2-6)Gal(b1-4)GlcNAc,-0.364
same,glycan array binding signal (z-score),[33],0.036
same,glycan array binding signal (z-score),[34],-0.259
same,glycan array binding signal (z-score),Man(a1-2)Man(a1-3)Man,-0.175
